In article PMC4336329 (PLoS ONE, 2015):
The whole screen tested about 310,000 compounds, of which about 14,000 (4.5%) showed an effect of 50% or more. The effect is printed as a negative number. The list shows a part of the results.

Target: human ether-à-go-go-related gene (hERG) potassium channel (human, UniProt Q12809)
Experiment: primary screen, population patch clamp on CHO cells stably expressing hERG
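Further: peak tail current of the secondary pulse compared with the same well before compound.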

Sequence of human ether-à-go-go-related gene (hERG) potassium channel (Q12809 whole entry, looked up): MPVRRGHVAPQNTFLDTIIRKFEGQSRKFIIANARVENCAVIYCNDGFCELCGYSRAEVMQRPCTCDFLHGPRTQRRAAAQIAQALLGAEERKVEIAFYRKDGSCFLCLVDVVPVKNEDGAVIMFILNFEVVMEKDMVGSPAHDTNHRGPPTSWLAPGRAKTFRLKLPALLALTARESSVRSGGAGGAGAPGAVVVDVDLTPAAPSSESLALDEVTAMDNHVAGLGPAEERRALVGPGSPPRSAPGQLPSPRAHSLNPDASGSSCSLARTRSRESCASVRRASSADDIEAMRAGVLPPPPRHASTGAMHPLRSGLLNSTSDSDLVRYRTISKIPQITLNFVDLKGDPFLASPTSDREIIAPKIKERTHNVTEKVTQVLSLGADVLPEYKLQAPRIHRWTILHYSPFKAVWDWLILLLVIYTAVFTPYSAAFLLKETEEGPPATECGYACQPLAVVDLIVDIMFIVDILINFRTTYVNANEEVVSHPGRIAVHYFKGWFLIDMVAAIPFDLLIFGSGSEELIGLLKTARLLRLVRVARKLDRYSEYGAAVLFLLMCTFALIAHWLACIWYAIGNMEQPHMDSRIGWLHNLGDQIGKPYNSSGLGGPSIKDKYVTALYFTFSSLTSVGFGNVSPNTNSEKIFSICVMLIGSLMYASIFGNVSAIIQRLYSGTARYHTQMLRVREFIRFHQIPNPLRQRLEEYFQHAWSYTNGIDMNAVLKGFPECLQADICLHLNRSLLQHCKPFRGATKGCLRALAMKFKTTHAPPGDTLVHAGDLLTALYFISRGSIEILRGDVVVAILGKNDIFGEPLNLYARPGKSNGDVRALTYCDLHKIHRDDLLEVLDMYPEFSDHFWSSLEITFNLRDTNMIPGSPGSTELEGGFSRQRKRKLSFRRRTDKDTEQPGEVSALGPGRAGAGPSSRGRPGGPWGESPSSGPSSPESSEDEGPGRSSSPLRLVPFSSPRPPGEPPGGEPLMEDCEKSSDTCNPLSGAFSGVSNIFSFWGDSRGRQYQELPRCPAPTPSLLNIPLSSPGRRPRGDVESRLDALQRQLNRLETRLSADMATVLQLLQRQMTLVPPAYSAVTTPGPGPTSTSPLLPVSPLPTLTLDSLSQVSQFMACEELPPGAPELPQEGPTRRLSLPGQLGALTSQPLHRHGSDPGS

Compound | hERG current change (%, negative = inhibition) at 10uM [%]
CC(C)c1cc(C(=O)NCCc2ccccc2)no1 | -40.1
COc1ccc(CN(C)C(=O)/C=C/c2ccc(S(=O)(=O)N3CCCCCC3)cc2)cc1 | -6.95
CC(=O)c1cccc(NC(=O)c2ccoc2C)c1 | -0.456
CN(C)C=O.N=C1C(c2nc(-c3ccc(Br)cc3)cs2)=C(O)CN1NC(=O)c1ccc([N+](=O)[O-])cc1 | 14.5
Cc1ccc(-n2nc(C(=O)c3ccccc3)n3c(=O)cc(-c4ccccc4)nc23)cc1 | 11.4
CN(Cc1ccccc1)CC(O)COc1ccc(CNCCc2ccncc2)cc1 (centres unmarked) | -17.5
Cc1cccn2c(=O)c(/C=C(\C#N)S(=O)(=O)c3ccccc3)c(N3CCN(C)CC3)nc12 | -45.5
Cn1c(=O)c2c(nc(NN=C3CCCC3)n2C)n(C)c1=O | 12.7
CC(C)Oc1cccc(-c2nnc(SCC(=O)Nc3ccc4c(c3)OCCO4)n2N)c1 | -8.81
COC(=O)c1ccc(NC(=O)c2c(C(=O)Nc3ccccc3)sc3nc(C)cc(=O)n23)cc1 | 15.3
COc1ccc(S(=O)(=O)n2c([N+](=O)[O-])cnc2C)cc1OC | 19.1
Cc1cc(C)nc(N2CCN(c3ccc(F)cc3)CC2)n1 | 13.2
NC(=O)C1CCN(C2=C(NS(=O)(=O)c3ccc(Cl)cc3)C(=O)c3ccccc3C2=O)CC1 | -38.3
CCCCn1c(N)c(N(CCC(C)C)C(=O)CC2CCCC2)c(=O)[nH]c1=O | 14.9
CN1/C(=C\C(=O)COC(=O)CNC(=O)c2ccc3ccccc3c2)C(C)(C)c2ccccc21 | -20.4
CCCCCc1ccc(-c2nnc(N)s2)cc1 | 13.6
COc1cc(CN2CCSCC2)c([N+](=O)[O-])cc1OC | -9.35
Cc1ccc(Cl)c(OCC(=O)Nc2sc(C)c(C)c2C#N)c1 | 6.08
COc1ccc(Oc2nc3ccccc3n3cccc23)cc1 | 3.63
O=C(CSc1nnc(-c2cccnc2)o1)Nc1ccc(Br)cc1 | 12.9
CCN1CCN(CC(=O)Nc2ccc(N(C)C)cc2)CC1.O=C(O)C(=O)O | -2.52
CCn1c2ccccc2c2cc(NS(=O)(=O)c3ccc(C)cc3)ccc21 | 14.1

Compound | hERG current change (%, negative = inhibition) at 10uM [%]
COc1ccc2[nH]c(C(=O)NCc3ccc4c(c3)OCO4)cc2c1 | 10.4
Cc1ccccc1-n1c(=O)c2ccccc2n(CC(=O)NCc2ccco2)c1=O | -7.12
COc1ccc(NS(=O)(=O)c2ccc3nc(COc4cccc5ccccc45)[nH]c3c2)cc1 | 21.9
Cc1ccc(NS(=O)(=O)N2CCOCC2)cc1Cl | 0.803
COc1ccc(C2CC(c3ccc4ccccc4c3)=NN2C(=O)COC(=O)C2CCC(=O)N2)cc1 (centres unmarked) | 1.4
Cc1cccc(C(C)C)c1NC(=O)COC(=O)CCN1C(=O)C2CC=CCC2C1=O (centres unmarked) | 3.04
C=C1N(c2ccc(Cl)cc2)C(=O)OC1(C)C | -11.4
Cc1cccc(-n2c(SCc3ccc([N+](=O)[O-])cc3)nnc2-c2c[nH]c3ccccc23)c1 | 16.5
CCCCC(c1nnnn1CCOC)N1CCN(CC)CC1.Cl (centres unmarked) | -3.08
COc1ccc(N2CCN(C(=O)c3ccc4c(c3)OCO4)CC2)cc1 | -21.7
CC(=O)N1CC(=O)Nc2ccc(F)cc2C1c1ccccc1 (centres unmarked) | 8.94
CC(=O)OCCn1c(Br)nc2c1c(=O)[nH]c(=O)n2C | 6.43
O=C(OCC(=O)c1ccc[nH]1)c1ccc([N+](=O)[O-])cc1 | -21.4
Cc1ccc(S(=O)(=O)/C(C#N)=C/c2c(N3CCC(C(N)=O)CC3)nc3ccccn3c2=O)cc1 | -55.3
Cc1ccc(C2=NCCn3c2c2ccc(C(F)(F)F)cc2[n+]3[O-])cc1 | -26.2
COc1cc(C(=O)Nc2ccncc2)cc(OC)c1OC | -4.68
COC(=O)c1ccc(Oc2ccc(S(=O)(=O)N3CCCCC3)cc2N)cc1 | 5.03
C=CCn1c(C)cc(C(=O)CSc2nnc(NCc3ccccc3)s2)c1C | -8.54
Oc1ccc(Br)cc1Cn1nnc2ccccc21 | 9.97
O=C(CSC1=Nc2ccccc2C2CC=NN12)Nc1ccc(F)cc1Cl (centres unmarked) | 21.1
CCOc1cc(NC(=O)c2ccco2)c(OCC)cc1NC(=O)CCC(=O)NCc1cccnc1 | -9.73
O=C(NC1CCCCC1)c1ccc(-c2cccc([N+](=O)[O-])c2)o1 | 12.4
